Measured values published in PubChem BioAssay AID1508642 (National Center for Advancing Translational Sciences (NCATS), 2021).
Out of some 43,000 compounds screened, about 200 (0.47%) were called active. Another 12% or so got no clear call; they are omitted. The call rests on the fitted dose curve; in most records, active means well fitted cell-killing curve with a large enough effect; inconclusive means small, poorly fitted or top-dose-only effect, or effect the other way; inactive means flat fitted curve, though single readings scatter. The list shows a part of the results.

Assay: Cell viability qHTS assay in S16 Pmp22-F2sN cells; further: nearly all actives have a fitted effect of over 65% in size
Conditions: S16 Pmp22-F2sN Schwann cells (luciferase reporters placed in the Pmp22 gene) viability, CellTiter-Glo, 24 h; series mostly up to 57.5 µM; activity change, negative = cytotoxicity: at the top concentration
Outline: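 Rat S16 Schwann reporter line, 24 h treatment with library compounds delivered at 23 nL per well. Cell viability by CellTiter-Glo luminescence.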
On the % scale 0 is the no-effect control and ±100 the full control effect; potency means the concentration at half of the fitted maximal effect.

Structure (SMILES)	activity change, negative = cytotoxicity	Potency
CCC1CCCCN1S(=O)(=O)c1ccc(C(=O)Nc2sc3c(c2C(=O)NC)CCC3)cc1 (centres undefined)	inactive: -0.93%	–
CCOc1ccc(CCNC(=O)c2cn(CC)c3ccc(S(=O)(=O)N4CCc5ccccc5C4)cc3c2=O)cc1OCC	inactive: -13.5%	–
CCn1c2ccccc2c2cc(CN3CCN(Cc4ccccc4F)CC3)ccc21	inactive: 17.5%	–
CCc1ccccc1N1C(=O)N(Cc2ccc(C#N)cc2)c2ccccc2S1(=O)=O	inactive: 12.8%	–
CC(C)Sc1oc(-c2cccs2)nc1S(=O)(=O)c1ccc(Cl)cc1	inactive: 3.39%	–
CCOc1ccc(OCC)c(NS(=O)(=O)c2cc(-c3cc(C)no3)ccc2C)c1	inactive: -1.05%	–
CCOc1ccc(NC(=O)C2CCCN(S(=O)(=O)c3cccc4nonc34)C2)cc1 (centres undefined)	inactive: 1.4%	–
Cc1ccc(Nc2c(-c3cccs3)nc3nc(C)cc(C)n23)cc1	inactive: 1.79%	–
CC(=O)c1ccc(NC(=O)CSc2nnc3ccc(-c4ccc(Cl)cc4)nn23)cc1	inactive: 9.38%	–
CCOc1ccc(NC(=O)NCc2c(-n3cccc3)sc3c2CCCC3)cc1	inactive: -0.104%	–
CCOc1ccccc1NC(=O)C(=O)NCCc1sc(-c2cccc(F)c2)nc1C	inactive: 21.7%	–
COc1ccc(-c2cc(C(F)(F)F)nc(S(=O)(=O)CCCC(=O)Nc3cccc(O)c3)n2)cc1OC	–	active: 8.91 µM
CCC(=O)Oc1ccc(/C=C(\C#N)c2nc3ccccc3[nH]2)cc1OC	inactive: -0.0022%	–
CCc1ccc(NCc2cc3cc4c(cc3n(CC(=O)Nc3ccc(C)cc3)c2=O)OCO4)cc1	inactive: 1.57%	–
COc1ccccc1CNC(=O)CCC(=O)N1CC2CCCN2c2ccccc21 (centres undefined)	inactive: 1.48%	–
O=C(NCc1ccc2c(c1)CCN2C(=O)c1ccc(F)cc1)c1cc2ccccc2[nH]1	inactive: -3.31%	–
c1ccc(CNc2nc3c(-c4ccccc4)nnn3c3ccccc23)cc1	inactive: 1.51%	–
COc1ccc(SCc2cc(=O)c3cc(Cl)ccc3[nH]2)cc1	inactive: -28.9%	–
Cc1cccc(C)c1OCCn1c(C2CC(=O)N(c3cccc(Cl)c3)C2)nc2ccccc21 (centres undefined)	inactive: 13.2%	–
COc1cccc(NC(=O)C2CCCN(S(=O)(=O)c3c(C)nn(C)c3C)C2)c1 (centres undefined)	inactive: -2.38%	–
O=C(Cc1ccc(Cl)cc1)Nc1ccc2nn(-c3ccc(Cl)cc3)nc2c1	inactive: 13.9%	–
CCn1c(C(=O)NCCc2ccc(OC)c(OC)c2)cc2sc(Cl)cc21	inactive: -3.82%	–
O=C(Cn1cc(C(=O)c2ccco2)c2ccccc21)Nc1ccc(Br)cc1	inactive: 0.913%	–
O=C(CSc1ccccc1)N1CCc2c([nH]c3ccccc23)C1c1ccc(F)cc1 (centres undefined)	inactive: -30%	–

Structure (SMILES)	activity change, negative = cytotoxicity	Potency
CC1CCN(S(=O)(=O)c2cn(CC(=O)Nc3cccc(C(F)(F)F)c3)c(=O)c3ccccc23)CC1	inactive: -16.7%	–
CCOC(=O)c1cnn(-c2ccc(C(=O)Nc3cc(OC)c(OC)c(OC)c3)cc2)c1N	inactive: -12%	–
CSc1ncc2c(n1)-c1ccccc1N(Cc1ccc(Cl)cc1)S2(=O)=O	inactive: 7.52%	–
COc1cccc(C(=O)Nc2cccc(C(=O)OCc3cc(=O)n4nc(C5CC5)sc4n3)c2)c1	inactive: -9.07%	–
Nc1c(-c2nc(-c3cccs3)no2)nnn1-c1ccc(Cl)cc1	inactive: 4.28%	–
CCCn1c2ccccc2c2cnn(CC(=O)N(C)c3ccc(F)cc3)c(=O)c21	inactive: 6.52%	–
COc1cccc(CSc2nc3ccccc3c3nc(CCn4c(C)nc5ccccc54)nn23)c1	inactive: 1.3%	–
CSc1ncc(Cl)c(C(=O)Nc2ccc(NC(C)=O)cc2)n1	inactive: 2.66%	–
CCCCNc1nc(Oc2ccc(OCC)nn2)nc(N2CCOCC2)n1	inactive: -2.37%	–
COc1cccc(NC(=O)c2ccc3nc(CCc4ccccc4)oc3c2)c1	inactive: 2.87%	–
COc1ccc(Cl)cc1NC(=O)c1c(NCc2ccc(C)o2)sc2c1CCCCC2	inactive: 12.9%	–
COc1ccccc1NC(=O)C1=C(C)Nc2c(C(=O)Nc3ccc(F)cc3)cnn2C1c1cccc([N+](=O)[O-])c1 (centres undefined)	inactive: -23.5%	–
CCCCN(C)c1nc2c(S(=O)(=O)c3ccc(CC)cc3)nnn2c2ccc(Cl)cc12	inactive: -1%	–
COc1ccc(NC(=O)Cn2c(=O)n(-c3ccc(OC)c(OC)c3)c(=O)c3ccccc32)cc1	inactive: 8.71%	–
COc1cc(C(CC(=O)NCc2ccc(F)cc2)N2Cc3ccccc3C2=O)cc(OC)c1OC (centres undefined)	inactive: 0.492%	–
O=C(C1CC1)N1CCc2cc(Br)cc(S(=O)(=O)N3CCN(c4cccc(C(F)(F)F)c4)CC3)c21	inactive: 11.9%	–
COc1ccc(Cl)cc1C(=O)Nc1sc2c(c1C(=O)OC(C)C)CCCC2	inactive: -2.28%	–
CCCCOc1ccc(-c2nn(-c3ccccc3)cc2C2NC(=O)NC(C)=C2C(=O)OC)cc1 (centres undefined)	inactive: -2.32%	–
CCOC(=O)c1ccc(NC(=O)c2c(-c3c(F)cccc3Cl)noc2C)cc1	inactive: 0.976%	–
CCC(=O)N1CCc2cc(Br)cc(S(=O)(=O)N3CCC(C(=O)NCCCOC(C)C)CC3)c21	inactive: 0.838%	–
Cc1cccc(N2CCN(c3ncnc4c3nc3n4CCCCC3)CC2)c1C	inactive: 26.3%	–
CCOc1ccc(NC(=O)c2ccc(NC(=O)N3CCSc4ncccc43)cc2)cc1	inactive: 2.7%	–
COC(=O)c1ccccc1NC(=O)c1ccc(COc2ccccc2Cl)o1	inactive: 5.98%	–
COc1ccc(C2CC(=O)c3cc(-c4nc(-c5cccc(Cl)c5)cs4)c(=O)[nH]c3C2)cc1OC (centres undefined)	inactive: 21%	–

Structure (SMILES)	activity change, negative = cytotoxicity	Potency
Cc1noc(/C=C/c2cccs2)c1S(=O)(=O)N1CCC(C(=O)Nc2ccc(F)c(Cl)c2)CC1	inactive: -0.175%	–
CC(=O)c1ccc(N2CCN(c3ncnc4c3c(-c3ccccc3)cn4-c3cccc(C)c3)CC2)cc1	inactive: 0.307%	–
COc1ccc(C(F)(F)F)cc1NC(=O)c1sc2nc(-c3cccs3)ccc2c1N	inactive: -23.1%	–
CCOC(=O)CC(NS(=O)(=O)c1ccc2[nH]c3c(c2c1)CCCC3)c1ccccc1Cl (centres undefined)	inactive: -2.39%	–
CC(C)OCCCNC(=O)c1ccc2c(c1)N(Cc1c(F)cccc1Cl)C(=O)c1ccccc1S2	inactive: 12.7%	–
COc1ccc(-c2nn3c(=O)cc(CN4CCN(C(=O)c5ccc(C(C)(C)C)cc5)CC4)nc3s2)cc1	inactive: 5.07%	–
Cc1ccc(Oc2c(C(F)(F)F)oc3c(CN4CCCCC4C)c(O)ccc3c2=O)cc1 (centres undefined)	inactive: -2.14%	–
CCOC(=O)c1c(N)n(-c2ccc(C)c(Cl)c2)c2nc3ccccc3nc12	inactive: 8.6%	–
COc1ccc(C(=O)NCC(c2cccnc2)N2CCc3ccccc32)cc1 (centres undefined)	inactive: -16.5%	–
CCOc1ccccc1NC(=O)CSc1nc2c(oc3ccccc32)c(=O)n1-c1ccc(C)c(C)c1	inactive: -9.28%	–
CCOC(=O)C1=C(CS(=O)(=O)c2cccc(C(F)(F)F)c2)NC(=O)NC1c1cccc(OC)c1 (centres undefined)	inactive: 4.84%	–
O=C(CCC1N=C2c3ccccc3N=C(SCc3ccc(F)cc3)N2C1=O)NCc1cccs1 (centres undefined)	inactive: -1.85%	–
CC1=C(c2ccc(C)c(C)c2)S(=O)(=O)N(Cc2ccc(C(=O)NCc3cccc(C)c3)cc2)C1=O	inactive: 3.08%	–
Cc1cccc(NC(=O)c2oc3ccccc3c2NC(=O)Cc2coc3c(C)c(C)ccc23)c1	inactive: 3.59%	–
CCOC(=O)Cc1ccc(NC(=O)N2CCOc3ccc(C)cc32)cc1	inactive: -16.6%	–
CC(C)c1ccc(NC(=O)C2CCCN(S(=O)(=O)c3cccc4cccnc34)C2)cc1 (centres undefined)	inactive: -25.2%	–
CCc1nnc2c3ccccc3nc(Nc3ccc(C(C)=O)cc3)n12	inactive: -4.32%	–
Cc1ccc(OC(C)C(=O)Nc2nonc2-c2ccc(Br)cc2)cc1C (centres undefined)	inactive: 2.85%	–
Cc1ccc2nc(N(Cc3cccnc3)C(=O)COc3ccccc3)sc2c1	inactive: 2.81%	–
CCOC(=O)Cn1c(=O)oc2cc(S(=O)(=O)N3CCN(c4cccc(C)c4C)CC3)ccc21	inactive: -0.0904%	–
CCOC(=O)c1cc(S(=O)(=O)N2CCN(c3ccccc3)CC2)[nH]n1	inactive: 0.329%	–
Cc1ccc(Cc2nc3ccccc3nc2SCC(=O)Nc2ccc3c(c2)OCO3)cc1	inactive: -0.168%	–
Cc1ccc(S(=O)(=O)NCCS(=O)(=O)N2CCN(c3ccccc3)CC2)cc1	inactive: -1.59%	–
COc1ccc(CNC(=O)C2CCN(Cc3nc(-c4ccc(Cl)cc4)oc3C)CC2)cc1	inactive: -0.0842%	–

Structure (SMILES)	activity change, negative = cytotoxicity	Potency
Cc1nc(N2CCOCC2)c2c(C(=O)Nc3cccc(C(F)(F)F)c3)c(C)oc2n1	inactive: 0.64%	–
CSc1ccc(CCNC(=O)CCc2c(C)nc3c(c(C)nn3-c3ccccc3)c2C)cc1	inactive: -0.904%	–
O=C(NC1CC(=O)N(c2cccc(F)c2)C1)c1ccc(Br)o1 (centres undefined)	inactive: 0.921%	–
Cc1ccc(CNC(=O)C(CC(C)C)NS(=O)(=O)c2ccc3c(c2)oc(=O)n3C)cc1 (centres undefined)	inactive: 4.45%	–
Cc1cccc(N2CCN(CCNC(=O)C3COc4ccccc4C3)CC2)c1C (centres undefined)	inactive: -27%	–
O=C(NCc1ccc(Cl)cc1)c1cnc(N2CCCCC2)c2ccccc12	inactive: 20.4%	–
O=C(O)c1cc(-n2c(/C=C\c3ccc(F)cc3)nc3ccccc3c2=O)ccc1Cl	inactive: -27.6%	–
Cc1c(S(=O)(=O)c2cccc(Cl)c2)nnn1-c1cccc(C(F)(F)F)c1	inactive: 19%	–
CCCC(=O)N1CCN(c2nc3c(OC)ccc(C)c3s2)CC1	inactive: 6.39%	–
CCOc1ccc(-n2c(SCC(=O)N3CCOCC3)nc3c([nH]c4ccccc43)c2=O)cc1	inactive: 1.24%	–
CC(C)(C)OC(=O)N1CCC(c2c(C(=O)N3CCN(C(=O)c4ccco4)CC3)cnn2-c2cccc(F)c2)CC1	inactive: -2.75%	–
COc1cc(C(=O)Nc2ccc3nc(SCc4ccc(C)cc4)sc3c2)cc(OC)c1OC	inactive: 19.2%	–
Cc1ccc(-n2nc(C(=O)N3CCC(C)CC3)c(=O)n(C)c2=O)cc1	inactive: -1.03%	–
Cc1ccc(Cl)cc1-n1ncc2c(NC3CCCCCC3)ncnc21	inactive: -2.72%	–
O=C(Nc1cccc(F)c1)c1ccc2snnc2c1	inactive: 3.62%	–
Cc1ccc(C)c(Nc2nnc(-n3nc(C)cc3C)c3ccccc23)c1	inactive: 0.289%	–
CCN(c1ccccc1)S(=O)(=O)c1nnc(NC(=O)c2cccs2)s1	inactive: -18.1%	–
CCOC(=O)c1cc(-c2ccccc2)n(CCCC(=O)Nc2ccc(C)cc2C)c1C	inactive: -5.13%	–
COc1ccc(-c2cc(C(=O)Oc3ccc(C)c(C)c3)c3ccccc3n2)cc1	inactive: 0.273%	–
Cc1cccn2c(=O)c3cc(C(=O)NCc4ccccc4Cl)sc3nc12	inactive: 6.21%	–
CCC(C)NC(=O)c1c(-c2ccccc2)c(-c2ccccc2)nn(C)c1=O (centres undefined)	inactive: -4.31%	–
CC(C)(C)C(=O)N1CCN(c2nc3c(F)cccc3s2)CC1	inactive: 1.54%	–
